# Reference: the supplement of paper PMC3334620
# In all, about 33,000 sequences were measured (“E-score (-0.5 to 0.5)”: median about -0.036, highest 2% from about 0.37 on). Some of the results follow.
# Biological target: T1, Yer064c (UniProt P40041)
# T1 sequence: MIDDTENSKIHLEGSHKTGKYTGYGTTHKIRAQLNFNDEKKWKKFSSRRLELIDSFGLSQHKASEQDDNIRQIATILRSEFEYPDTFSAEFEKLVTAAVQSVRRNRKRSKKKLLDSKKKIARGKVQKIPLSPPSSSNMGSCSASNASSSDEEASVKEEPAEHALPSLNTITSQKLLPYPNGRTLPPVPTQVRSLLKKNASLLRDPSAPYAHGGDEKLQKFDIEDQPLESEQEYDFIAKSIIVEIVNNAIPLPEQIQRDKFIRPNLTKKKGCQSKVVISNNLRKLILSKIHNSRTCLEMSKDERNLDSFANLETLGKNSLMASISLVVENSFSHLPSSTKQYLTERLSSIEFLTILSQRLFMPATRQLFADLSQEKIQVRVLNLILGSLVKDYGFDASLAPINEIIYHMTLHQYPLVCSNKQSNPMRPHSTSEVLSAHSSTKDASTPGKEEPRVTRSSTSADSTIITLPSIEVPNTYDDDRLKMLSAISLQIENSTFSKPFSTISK
# Test: PBM E-score (8-mer binding enrichment) (E-score (-0.5 to 0.5)); higher = stronger / more preferred TF binding; most listed sequences are background and not binding sites
# Details: protein concentration: 200 nM; construct: GST-full length
# In short: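 Using PURExpress in vitro transcription/translation, GST-tagged yeast transcription factors were made in full-length or DNA-binding-domain form. These were applied at about 100-200 nM to double-stranded universal all-10-mer Agilent arrays, and bound protein was detected with fluorescent anti-GST. Scans were normalised with masliner before the Universal PBM Analysis Suite assigned E-scores to ungapped eight-base words pooled with their reverse complements.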
row,Sequence,PBM E-score
1,GAGACATC,0.279
2,GACTACTA,0.417
3,CTATAAGC,-0.178
4,AAGAAAAT,-0.048
5,CGCAATCA,0.302
6,CAGGTACG,-0.0656
7,GCTGCGTA,0.0273
8,GCGCGGAA,-0.121
9,CAGGTGTA,-0.114
10,GAGACGCA,-0.102
11,GTCCAATA,-0.00796
12,GAAGGGCC,-0.246
13,CAGTGAAC,0.0428
14,ACTTTCAA,0.0563
15,GTAACCAA,-0.071
16,GATAAGAC,0.135
17,GACGTAAA,-0.16
18,ACACCGGA,-0.142
19,GCCTGCGC,-0.216
20,CAGTGGGG,-0.333
21,GAGGAAAC,-0.329
22,TAAATCGA,0.154
23,ACCAGGCC,-0.136
24,CCCGCTAA,-0.255
25,ACCTATAA,0.0382

row,Sequence,PBM E-score
1,AACAGATA,0.0158
2,ATCGAGTC,0.389
3,CTGCTGTC,-0.0761
4,GACTTACA,0.31
5,CACTAGTA,-0.0969
6,GCGGTGCC,-0.359
7,GATGCCTA,-0.00818
8,GATGCCAC,-0.0836
9,GGTGTATA,-0.125
10,AGTTTCGC,-0.0135
11,ACCTTAAC,-0.0243
12,AACCGTCC,-0.179
13,ATTAAGAG,0.143
14,ACCAGCCC,0.00477
15,ATCCGACA,-0.0743
16,CGTGACAG,-0.0628
17,CACCACAC,-0.052
18,CAACATTG,-0.0231
19,CCGAAGCA,-0.0419
20,AGCGCGGG,0.00652
21,GCTGGATA,-0.214
22,ATCTGCAC,-0.235
23,CATGTAGA,0.0666
24,GACTTTCC,0.224
25,AGACGATG,0.166

row,Sequence,PBM E-score
1,CGCGGTGC,-0.257
2,AAACAGTG,0.0224
3,AGGGGAGG,-0.163
4,ATCCACAT,0.0414
5,CAACTTCG,-0.171
6,AGCGTCCA,-0.205
7,AATATTTG,0.0635
8,CTTCCTGA,0.0745
9,ATACGGGA,-0.0636
10,CGATTGAC,0.168
11,CCTATATA,0.0598
12,ACCCGACA,-0.0915
13,CAAGCTAA,-0.018
14,ACGCCAGA,-0.078
15,AGACTCCG,0.367
16,CATATCAG,-0.0243
17,GATTGCGA,0.189
18,AGATTCTG,-0.00149
19,CGGTTGAC,0.0774
20,CGTAAAGA,-0.00922
21,CTGCTAGA,0.00564
22,CAGACCCA,-0.0972
23,GCGTCCTA,-0.0515
24,CCCGGCCG,-0.11
25,CAAAGCCA,0.0169

row,Sequence,PBM E-score
1,GGGTACCC,-0.0185
2,CATACATC,-0.108
3,CCCAGCAC,-0.226
4,AATACTGG,-0.118
5,AATTACAA,-0.0291
6,AGATTTAT,0.151
7,AACATAAA,0.065
8,GGGGACGA,-0.0531
9,ACAACACG,-0.182
10,TTAGGCAA,-0.0683
11,CCATACGG,-0.104
12,ACTAGAGG,0.113
13,ATCACTCA,0.298
14,GATCTAAA,0.101
15,GGGAGCGA,-0.068
16,GACTCGCC,0.371
17,GATACTCA,0.311
18,CCGAGTGA,0.151
19,ACAATCTA,0.12
20,GGGATGCA,-0.127
21,GCTTAGCC,-0.0758
22,CATCTGGG,-0.0921
23,ACGGCTTA,-0.0372
24,CGCACACC,-0.0196
25,TGACTGAA,0.432

row,Sequence,PBM E-score
1,AACTAGAG,0.0933
2,ATCTACCG,-0.0521
3,AGACACGA,0.0462
4,TAACTATA,0.0807
5,GCGGCAGC,-0.295
6,GCCCAGGA,-0.148
7,AATCGAAT,0.0432
8,GACTAGCA,0.374
9,ACGTAGGA,0.0744
10,CTTTAGAA,0.0224
11,ACGCTGTA,-0.00895
12,CTATAATC,0.227
13,CTGCCGCA,-0.103
14,GTCGTCGA,0.106
15,CACCCGAA,0.0215
16,AATGCCGA,-0.0788
17,AGCGCCGC,-0.315
18,ACGAAATG,-0.05
19,AGCAGAGA,0.0273
20,GGCGAAAA,-0.099
21,GAAGTCCA,-0.0504
22,CCATCGCG,0.0738
23,GCATTTAA,-0.0791
24,CCGAGCAC,-0.113
25,AGAAGGCA,-0.3

row,Sequence,PBM E-score
1,AGTACGCC,0.0783
2,ACGGTCTC,-0.123
3,CACATCAG,-0.0487
4,GGGTAGTA,-0.116
5,ATTAGTCG,0.41
6,ACTCCCTA,0.163
7,CGGCTTAG,-0.0555
8,CCTAACAC,0.0929
9,GGCAAGCC,-0.208
10,AAACTTCT,0.0722
11,AATTTGTG,0.00772
12,AAGGACAA,0.146
13,AACGCACT,-0.0933
14,CTGGGACA,-0.195
15,CCGGCTAA,0.0105
16,GCGTATTA,-0.118
17,GTAGCGCA,-0.238
18,TAGCGCAA,-0.0782
19,CCCTTGAA,-0.0587
20,ATCCACCG,0.0718
21,TAAGGAGA,0.123
22,ACCGCTAT,-0.159
23,CCACCTGG,-0.145
24,ATTTGTGC,0.0583
25,CGTGGTAA,-0.141

row,Sequence,PBM E-score
1,ATGTTTCG,0.0613
2,GCAATGCA,-0.156
3,AGAGCCTG,-0.19
4,ACTGGTTG,0.013
5,CAGATACC,-0.147
6,AGCCGATC,-0.0598
7,CCTATCAG,-0.2
8,ATCAACGG,0.168
9,AGTCAGAC,0.436
10,GAAAATGC,-0.228
11,GCCAGCGC,-0.166
12,AACCCCTA,-0.0207
13,AGACCGCG,-0.1
14,ACTCGTAG,0.218
15,TCTAAGAA,0.163
16,ACAATTAC,0.162
17,ATACTTGA,0.103
18,AGAGATAG,-0.0413
19,GCCGGGCA,-0.199
20,AAGGTACG,-0.094
21,ACTTTGGG,0.0215
22,CAGACTGC,0.0507
